Test results: US20060135431A1 (published 2006)

Biological target: T1, recombinant human AGP3 (human, UniProt Q9Y275 part only, limits assumed)
T1 construct: also called TALL-1; human AGP3 protein
Assay: KinExA solution equilibrium: 100 pM and 40 pM peptibody incubated with human AGP3, free peptibody captured on human AGP3-coated beads

Kd: ~4 pM
B1: TALL-1 12-3 tandem dimer peptibody (Fc fusion)
chain: MLPGCKWDLLIKQWVCDPLGSGSATGGSGSTASSGSGSATHMLPGCKWDLLIKQWVCDPLGGGGGV[human IgG1 Fc not spelt out]
notes: also called AGP3 peptibody; AGP3 Pb
